Source: PubChem BioAssay AID686979 (National Center for Advancing Translational Sciences (NCATS), 2013)
Among all 420,000 compounds or so, about 50,000 (12%) were called active. Inconclusive means that the source gave no clear call. Such entries were picked first, then a sample of the others. Calls come from the whole dose curve; as a rule, active = well fitted inhibition curve with a large enough effect; inconclusive = small, poorly fitted or top-dose-only effect; inactive = flat fitted curve, though single readings scatter. Potencies of inconclusive entries are left out as doubtful fits.

assay: qHTS for Inhibitors of human tyrosyl-DNA phosphodiesterase 1 (TDP1): qHTS in cells in presence of CPT; details: chicken DT40 Tdp1-/-;hTDP1 cells + 20 nM CPT, ATP luminescence, 48 h; series mostly up to 46.2 µM; note: nearly all actives have a fitted effect of over 55% in size
Method in brief: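 Chicken DT40 Tdp1-/- cells stably complemented with human TDP1 were seeded at 400 cells/well in medium containing 20 nM camptothecin, exposed to pin-transferred compounds, and grown at 37 °C for at least 48 hr. Viability was read as ATP luminescence.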
Potency is the fitted concentration of half-maximal effect; tags give direction and shape of the fitted curve.

Compound	Potency
COc1ccccc1-c1noc(CCCC(=O)Nc2cc(C)ccc2C)n1	inconclusive [inhibitor, single point]
Cc1ccc(CNC(=O)CC(C)S(=O)(=O)c2ccc3c(c2)NC(=O)CS3)o1 (configuration not stated)	inactive
COc1ccccc1N1CCN(C(=O)c2ccc(Cl)c(S(=O)(=O)NCc3ccco3)c2)CC1	active: 5.62 µM
Cc1cccc2[nH]c3c(N4CCN(C(=O)c5ccco5)CC4)ncnc3c12	inconclusive [inhibitor, single point]
Cc1ccc(S(=O)(=O)N/N=C/c2ccc3nccnc3c2)cc1	inconclusive [inhibitor, single point]
Cn1c(SCc2nc(-c3ccccc3)no2)nnc1-c1ccco1	inactive
COc1ccc(N(CC(=O)NCc2ccco2)C(=O)CCC(=O)Nc2nccs2)cc1	inactive
OCCCn1c(C2CCCN2c2nc(-c3ccc(Cl)cc3)cs2)nc2cc(Cl)c(N3CCCCC3)cc21 (configuration not stated)	inconclusive [inhibitor, single point]
C=CCn1c(SCC(=O)Nc2cccc(S(N)(=O)=O)c2)nnc1C1CCCCC1	inactive
CC(C)c1nc(SCC(=O)Nc2ccc3c(c2)OCCO3)c2c(=O)n(C)c(=O)n(C)c2n1	inconclusive [inhibitor, single point]
C#CCOCCOCCOCCNc1nc(N2CCN(C(=O)[C@H](CCC(=O)O)n3cc([C@@H](N)CC(N)=O)nn3)CC2)nc(N2CCN(C(=O)[C@H](CCC(=O)O)n3cc([C@@H](N)CC(N)=O)nn3)CC2)n1	inactive
COc1ccc2ccccc2c1/C=N\NC(=O)c1ccc(C)s1	inconclusive [inhibitor, single point]
C/C(=N/NC(=O)c1ccc(C)nc1)c1ccc2c(c1)CCCC2	active: 14.6 µM
Cc1cccc(CN2CCN([C@H]3CS(=O)(=O)N[C@@H]3COCc3ccccc3)CC2)c1	active: 18.4 µM
N#CC1=C2SCN(Cc3ccco3)CN2C(=O)CC1c1cccc2ccccc12 (configuration not stated)	inconclusive [inhibitor, single point]
COc1ccc(NC(=O)CSc2nnc(-c3ccccc3)n2Cc2ccco2)c(OC)c1	inactive
Cc1occc1C(=O)Nc1cccc(-c2nc(CNC(=O)c3cc(-c4ccccc4)n[nH]3)c(C)o2)c1	inconclusive [inhibitor, partial curve, poor fit]
CCN(CC)C(=O)Nc1ccc2c(c1)N(Cc1ccccc1)C(=O)c1ccccc1S2	inconclusive [inhibitor, single point]
CCOC(=O)c1c(NC(=O)C2COc3ccccc3O2)sc(C)c1C (configuration not stated)	inconclusive [inhibitor, single point]
CCOc1ccc(NS(=O)(=O)c2ccc(NC(=O)c3cccnc3)c(OC)c2)cc1	inactive
O=c1cc(/N=C/c2coc3c(ccc4ccccc43)c2=O)[nH]c(=S)[nH]1	inconclusive [inhibitor, single point]
O=C(Nc1ccccc1)c1ccc(N2CCN(c3ccccn3)CC2)c(S(=O)(=O)N2CCOCC2)c1	inactive
COc1ccc(OC)c(S(=O)(=O)NCCc2csc(-c3cccc(F)c3)n2)c1	inconclusive [inhibitor, single point]

Compound	Potency
CCOC(=O)c1c(C)[nH]c(C)c1S(=O)(=O)NCC(=O)N1CCN(c2ccccc2OC)CC1	inconclusive [inhibitor, single point]
Cc1ccc(C2=Nc3ccccc3N=C(C(Cl)Cl)C2)cc1	active: 18.4 µM
N#CCCC(CCC#N)C1=NCCc2ccccc21	inactive
C=CCn1c(C)cc(C(=O)CN2C(=O)NC3(CCCc4ccccc43)C2=O)c1C (configuration not stated)	inconclusive [inhibitor, single point]
Cc1ccc(Cc2c(C(C)(C)C)nc3cc(C)c(Br)c(C)n23)cc1	inconclusive [inhibitor, single point]
CN(CCCNC(=O)c1cccn2c(=O)c3ccccc3nc12)Cc1ccccc1	active: 22.4 µM
Cc1nc2ccccc2n1CC(=O)OCC(=O)N1CCC(C)CC1	inactive
COc1ccc(CN2CCC3(CC2)c2ccccc2[C@@H](NC(=O)c2ccsc2)[C@@H]3OC)cc1O	inconclusive [inhibitor, single point]
COc1cc(C(=O)NC(c2ccc(Cl)cc2)c2cc(Cl)c3cccnc3c2O)cc(OC)c1OC (configuration not stated)	active: 10.3 µM
COc1ccc(-c2nc(CS(=O)CC(=O)NC3CCC(C)CC3)c(C)o2)cc1OC (configuration not stated)	inconclusive [inhibitor, single point]
CCc1cccc(C)c1NC(=O)CN1CCCN(Cc2ccccc2Cl)S1(=O)=O	inconclusive [inhibitor, partial curve]
COc1cc(C2c3c(-c4ccccc4O)n[nH]c3C(=O)N2Cc2ccco2)ccc1OCC(C)C (configuration not stated)	inconclusive [inhibitor, single point]
CCOc1ccccc1NC(=O)C(CC)n1c(C(=O)OC)cc2occc21 (configuration not stated)	inconclusive [inhibitor, single point]
CCOC(=O)N1CCN(S(=O)(=O)c2ccc(C(=O)NNc3nc4ccc(Cl)cc4s3)cc2)CC1	active: 20.6 µM
CC(CCc1ccccc1)NC(=O)CNc1cccc([N+](=O)[O-])c1 (configuration not stated)	inconclusive [inhibitor, single point]
N#Cc1c(SCC(=O)Nc2cccc(C(F)(F)F)c2)sc2c(O)cc(=O)[nH]c12	inactive
Cn1c(=O)c2c(-c3ccccc3)n(-n3cnnc3)cc2n(C)c1=O	active: 25.9 µM
COc1cccc(CNS(=O)(=O)c2cc(CN3C(=O)c4cccnc4C3=O)ccc2OC)c1	inactive
CCc1ccc(CN2CCC(C(=O)Nc3ccc(-n4nc(C)cc4C)cc3)CC2)o1	inconclusive [inhibitor, partial curve, poor fit]
COc1ccccc1CNC(=O)C1(NC(=O)Nc2ccc(C)cc2)CCCCC1	inconclusive [inhibitor, single point]
COc1ccc(CN2C[C@@H](CO)O[C@@H](n3cnc4c(NC5CC5)ncnc43)C2)cc1	inconclusive [inhibitor, single point]
Cc1cc(NC(=O)/C=C/c2ccccc2Cl)n(-c2nc3ccccc3[nH]2)n1	inconclusive [inhibitor, partial curve]
O=C(Cn1c(CO)nc2ccccc21)Nc1cc(C(F)(F)F)ccc1N1CCOCC1	inconclusive [inhibitor, partial curve]

Compound	Potency
CN1Cc2cccc3c2C(Cc2ccccc2S3)C1 (configuration not stated)	inconclusive [inhibitor, single point]
COc1ccc(C(NC(C)=O)c2ccc3cccnc3c2O)cc1OC (configuration not stated)	active: 6.31 µM
COC(=O)c1ccc(C(=O)NCC2Cc3cccc(-c4ccc(C(=O)OC)cn4)c3O2)cc1 (configuration not stated)	inconclusive [inhibitor, single point]
Cc1cc(C)nc(NC(N)=NCCc2c[nH]c3ccccc23)n1	active: 20.6 µM
N#Cc1ccc(C(=O)N2CCC3CC2c2cc(-c4ccc(F)cc4)ccc23)cc1 (configuration not stated)	inconclusive [inhibitor, single point]
Cc1cc(NC(=O)c2cc([N+](=O)[O-])ccc2Cl)no1	inconclusive [inhibitor, single point]
O=C(c1ccco1)N1CCN(c2ccc([N+](=O)[O-])cc2F)CC1	inconclusive [inhibitor, partial curve]
COc1ccc(N(C(=O)/C=C\C(=O)Nc2ccc(C)cc2)C(C(=O)NCc2ccco2)c2ccc(C)cc2)cc1 (configuration not stated)	active: 6.51 µM
CCCNc1ncnc2nc[nH]c12	inconclusive [inhibitor, full curve, poor fit]
COCCC(=O)N1CCC(Oc2ccc(C(=O)NC3Cc4ccccc4C3)cc2)CC1	inconclusive [inhibitor, single point]
CC1(c2cccc(Br)c2)NC(=O)N(CC(=O)Nc2ccc(S(N)(=O)=O)cc2)C1=O (configuration not stated)	inactive
O=C(O)c1ccc(Cn2cnc3c(=O)[nH]cnc32)cc1	inactive
CCCN(CC(=O)Nc1ccccc1C)C(=O)c1cccc(S(=O)(=O)N2CCN(c3ccccc3)CC2)c1	inconclusive [inhibitor, partial curve]
Cc1ccccc1-n1ncc2c1CC(C)(C)CC2NC(=O)CSc1ccncc1 (configuration not stated)	inconclusive [inhibitor, single point]
Cc1cccc(N2CCN(C(=O)CC(NC(=O)c3ccccc3)c3ccccc3)CC2C)c1 (configuration not stated)	inconclusive [inhibitor, single point]
Cc1c(C(=O)N2CCCCCC2)c(S(=O)(=O)N(Cc2ccccc2)C(C)(C)C)c(C)n1C	inconclusive [inhibitor, single point]
CCOC(=O)C(CC)n1cnc2c(nnn2-c2ccc(F)cc2)c1=O (configuration not stated)	inactive
CCCOc1ccc(OCCN2CCCC(C)C2)cc1 (configuration not stated)	inactive
COc1ccc(OC)c(S(=O)(=O)N2CCC(C(=O)Nc3cccc(C)c3)CC2)c1	inconclusive [inhibitor, single point]
COCCn1c(=O)c(-c2cccc(C#N)c2)nc2cnc(Oc3cccc(Cl)c3)nc21	inactive
Cc1ccc2cccc(OC(=O)c3ccc4c(c3)OCCO4)c2n1	inconclusive [inhibitor, single point]
